Here are results for 16 sequences from the supplement of paper PMC10338343.

± gives the standard deviation. This is a selection; strong and weak results do not stand in their true shares.

In the test the test system is MIWI (PIWIL1) piRISC loaded with piRNA #1 (30 nt). In words: pre-steady-state target cleavage rate (min^-1); MIWI and MILI are mouse PIWI proteins and EfPiwi is from a freshwater sponge; tags in brackets are library labels; higher = faster piRNA-guided slicing of the target. To be noted: guide: piRNA #1 5'p-UGAGGUAGUAGGUUGUAUAGUAUCCAGAGG; auxiliary factor: 500 nM mouse GTSF1. Summed up:
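Using HEPES–potassium acetate buffer at 33 °C, 1 nM active affinity-purified piRISC with a single synthetic guide was mixed with 0.1 nM transcribed, DNA-blocked target RNA library for 0–8 or 0–960 min, with or without 500 nM GTSF1 partner protein. Uncleaved targets were sequenced and normalised to depth and to weakly complementary targets, and three trials were pooled with k3 capped at 0.0001 min^-1. A burst-and-steady-state fit gave the pre-steady-state cleavage rate.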
Consider CCUGUGGAUACUAUACAACCAACUACCUCA, for which the “pre-steady-state target cleavage rate” value worked out at 0.129 ± 0.013.
Consider GGAGUGGAUGCUAUACAACCUACUACCUCA, for which the “pre-steady-state target cleavage rate” value stood at 1.7 ± 0.13.
To GGAGAGGAUACUAUAGAACCAACUACCUCA belongs 0.0447 ± 0.006; to CGUCUGGAUACAAUACAACCUACUACCUCA, 1.74 ± 0.09.
To CCUGUGGAAACUAUACAACCUACUACCUCA belongs 1.78 ± 0.09.
To GGAGAGGAUACUAUACAACCUAGUACCUCA belongs 0.145 ± 0.031; to GGAGACCUAACUAUACAACCUACUAACUCA, 0.84 ± 0.067; to GGAGACCUAUGAUUAAAACCUACUACCUCA, less than 0.0001.
For the sequence GGAGACCUAUGUAUACAACGUACUACCUCA, the “pre-steady-state target cleavage rate” value came to 0.0113 ± 0.0021.
The same measure for GGAGACCUAACUAUACAACCUUCAACCUCA: 0.0121 ± 0.0035; for GGUCUGGAAACUAUACAACCUAGUACCUCA: 0.484 ± 0.077; for GGAGACCUUACUAUACAACCUACUAGCUCA: 0.974 ± 0.076.
Take GGAGUGGAUACUAUAGAAGCUACUACCUCA: the “pre-steady-state target cleavage rate” value worked out at 0.795 ± 0.039.
The same measure for “GGAGACCUAUCUAUACAACCUACUACCUCU [g2:g20:cont:t1U]”: 1.05 ± 0.087.
The same measure for GGAGACCUAUCUAUACAACCUAGAUCCUCA: 0.00558 ± 0.002; for GGACUGGUUACUAAACAACCUACUACCUCA: 1.41 ± 0.14.
